{"source": "the BET-seq Pho4 binding data (Le et al. 2018)", "note": "This is one part of the list. Values were computed here from the reads of four pooled replicates and scatter widely."}
{"biological_target": "T1, Pho4 (S. cerevisiae) (UniProt P07270)", "T1 sequence": "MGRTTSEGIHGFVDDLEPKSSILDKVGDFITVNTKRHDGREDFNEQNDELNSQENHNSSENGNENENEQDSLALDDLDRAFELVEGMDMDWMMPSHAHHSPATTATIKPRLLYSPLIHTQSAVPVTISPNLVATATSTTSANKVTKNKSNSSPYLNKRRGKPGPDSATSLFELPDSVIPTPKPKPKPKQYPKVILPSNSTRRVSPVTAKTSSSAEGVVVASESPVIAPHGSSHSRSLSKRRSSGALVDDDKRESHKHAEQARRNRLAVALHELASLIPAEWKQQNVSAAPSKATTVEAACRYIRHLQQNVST", "test": "relative binding free energy (BET-seq); higher = weaker binding", "settings": "reference: library average", "units": {"relative binding free energy": "kcal/mol"}}
{"sequence": "GCGGGCACGTGTTGTG", "relative binding free energy": -0.03}
{"sequence": "TTTGTCACGTGTACAT", "relative binding free energy": 0.14}
{"sequence": "TGGGTCACGTGCCGAT", "relative binding free energy": 0.08}
{"sequence": "GGGTGCACGTGGATGC", "relative binding free energy": -0.1}
{"sequence": "GTTGGCACGTGGGGGG", "relative binding free energy": -0.13}
{"sequence": "TGATGCACGTGTAGGT", "relative binding free energy": 0.07}
{"sequence": "CTTTACACGTGCTGGG", "relative binding free energy": 0.19}
{"sequence": "GGTATCACGTGGTCTA", "relative binding free energy": 0.19}
{"sequence": "CCGAGCACGTGAGGGG", "relative binding free energy": 0.07}
{"sequence": "GAGAACACGTGGTGGA", "relative binding free energy": 0.1}
{"sequence": "GCGGTCACGTGTCTGT", "relative binding free energy": 0.23}
{"sequence": "TGCTTCACGTGGGGGA", "relative binding free energy": 0.05}
{"sequence": "TAGGACACGTGGTGTG", "relative binding free energy": -0.03}
{"sequence": "AATAGCACGTGATTTA", "relative binding free energy": 0.05}
{"sequence": "ATCGGCACGTGAGTGA", "relative binding free energy": 0.18}
{"sequence": "AGAAGCACGTGAGTTG", "relative binding free energy": 0.15}
{"sequence": "CGTGGCACGTGGGTTC", "relative binding free energy": -0.24}
{"sequence": "AATGGCACGTGTGGTG", "relative binding free energy": -0.01}
{"sequence": "CTGTTCACGTGCTAGG", "relative binding free energy": 0.2}
{"sequence": "ATGTTCACGTGGATCA", "relative binding free energy": 0.34}
{"sequence": "GTATGCACGTGTTGCG", "relative binding free energy": -0.09}
{"sequence": "CAGCGCACGTGCGGGG", "relative binding free energy": -0.16}
{"sequence": "TGTTACACGTGGGTGG", "relative binding free energy": 0}
{"sequence": "GTATACACGTGTATCG", "relative binding free energy": 0.25}
{"sequence": "GGAGACACGTGGTTAA", "relative binding free energy": 0}
{"sequence": "TGAATCACGTGCGTAT", "relative binding free energy": 0.13}
{"sequence": "TGCTTCACGTGGAGTT", "relative binding free energy": 0.24}
{"sequence": "AGATGCACGTGTAAGG", "relative binding free energy": 0.01}
{"sequence": "TGTTTCACGTGATGAT", "relative binding free energy": 0.35}
{"sequence": "TTTGTCACGTGTACTA", "relative binding free energy": -0.07}
{"sequence": "AAGCGCACGTGGGAGG", "relative binding free energy": -0.14}
{"sequence": "TATTACACGTGAAGTT", "relative binding free energy": 0.35}
{"sequence": "AGGTGCACGTGCAGGC", "relative binding free energy": 0.01}
{"sequence": "TGGGTCACGTGCTGGA", "relative binding free energy": 0.07}
{"sequence": "TGCGACACGTGTGTGG", "relative binding free energy": 0.04}
{"sequence": "TGATGCACGTGAAGGA", "relative binding free energy": 0.26}
{"sequence": "GTGAACACGTGTAGTG", "relative binding free energy": 0.1}
{"sequence": "TTCGACACGTGAGGTG", "relative binding free energy": 0.27}
{"sequence": "TTTTGCACGTGCAGGG", "relative binding free energy": 0.04}
{"sequence": "TGGGACACGTGCTTGC", "relative binding free energy": -0.04}
{"sequence": "TTTTGCACGTGAACAT", "relative binding free energy": 0.16}
{"sequence": "TGTGACACGTGGCTGA", "relative binding free energy": -0.08}
{"sequence": "GGCTTCACGTGTGGAG", "relative binding free energy": 0.26}
{"sequence": "ATGAGCACGTGGATGT", "relative binding free energy": -0.12}
{"sequence": "AGTGACACGTGGTTTA", "relative binding free energy": -0.01}
{"sequence": "ATAGGCACGTGTGGGC", "relative binding free energy": 0.01}
{"sequence": "AATGGCACGTGTTGGG", "relative binding free energy": 0.04}
{"sequence": "CAGTGCACGTGGTTCG", "relative binding free energy": -0.07}
{"sequence": "TCGTTCACGTGGTCAT", "relative binding free energy": 0.16}
{"sequence": "CGTGGCACGTGTGGCG", "relative binding free energy": -0.12}
{"sequence": "TTTATCACGTGTGACG", "relative binding free energy": 0.26}
{"sequence": "CGGTACACGTGAGGGT", "relative binding free energy": 0.26}
{"sequence": "ATGCGCACGTGTAAGT", "relative binding free energy": 0}
{"sequence": "CGTTTCACGTGGTTAA", "relative binding free energy": 0.14}
{"sequence": "TGTCTCACGTGAGAGT", "relative binding free energy": 0.49}
{"sequence": "AGCGCCACGTGGTTGT", "relative binding free energy": -0.15}
{"sequence": "TTGATCACGTGATGGG", "relative binding free energy": 0.27}
{"sequence": "GGTCGCACGTGAGAGT", "relative binding free energy": 0.42}
{"sequence": "GTGTTCACGTGATGGT", "relative binding free energy": 0.48}
{"sequence": "GTCGTCACGTGGTTTT", "relative binding free energy": 0.22}
{"sequence": "TATGTCACGTGTTGAC", "relative binding free energy": 0.2}
{"sequence": "ATTTTCACGTGAGGCG", "relative binding free energy": 0.15}
{"sequence": "TAGTTCACGTGATTGG", "relative binding free energy": 0.56}
{"sequence": "CTATGCACGTGAGAGT", "relative binding free energy": 0.22}
{"sequence": "GCGTACACGTGATGGT", "relative binding free energy": 0.15}
{"sequence": "GGTCTCACGTGTGTGA", "relative binding free energy": 0.21}
{"sequence": "ATTATCACGTGATGTA", "relative binding free energy": 0.37}
{"sequence": "TAAGTCACGTGGCAGG", "relative binding free energy": 0.03}
{"sequence": "CAAGGCACGTGGAGGG", "relative binding free energy": -0.23}
{"sequence": "ATATTCACGTGTGCTA", "relative binding free energy": 0.24}
{"sequence": "GTTGACACGTGGGCAT", "relative binding free energy": -0.14}
{"sequence": "TTTCGCACGTGATATT", "relative binding free energy": 0.07}
{"sequence": "AGGAGCACGTGTTTAT", "relative binding free energy": -0.09}
{"sequence": "AAGGGCACGTGGAGAG", "relative binding free energy": -0.1}
{"sequence": "CGGTCCACGTGTAGGG", "relative binding free energy": 0.08}
{"sequence": "GCGTACACGTGGAGGT", "relative binding free energy": 0.08}
{"sequence": "GTTGGCACGTGGTGAC", "relative binding free energy": -0.04}
{"sequence": "GTCGGCACGTGAGGGG", "relative binding free energy": 0.22}
{"sequence": "TGGTTCACGTGTGACA", "relative binding free energy": 0.17}
{"sequence": "TTTGCCACGTGGTCTG", "relative binding free energy": -0.16}
{"sequence": "AAATGCACGTGGAGGT", "relative binding free energy": -0.16}
{"sequence": "GGAATCACGTGAATGG", "relative binding free energy": 0.38}
{"sequence": "GTGCGCACGTGCTGGG", "relative binding free energy": -0.22}
{"sequence": "GTTTGCACGTGTAGCA", "relative binding free energy": 0.01}
{"sequence": "TACTGCACGTGTATTA", "relative binding free energy": 0.03}
{"sequence": "AATTACACGTGTGAAG", "relative binding free energy": 0.06}
{"sequence": "TTTGGCACGTGAGTCT", "relative binding free energy": 0.19}
{"sequence": "TTGGGCACGTGGGGTG", "relative binding free energy": -0.2}
{"sequence": "TGTGGCACGTGTAGCG", "relative binding free energy": 0.04}
{"sequence": "TTATGCACGTGGTGCG", "relative binding free energy": -0.16}
{"sequence": "AAGGTCACGTGATGCG", "relative binding free energy": 0.22}
{"sequence": "GGGATCACGTGTAGTA", "relative binding free energy": 0.26}
{"sequence": "TGGTTCACGTGGCGGC", "relative binding free energy": 0.15}
{"sequence": "AAGTGCACGTGTGTCT", "relative binding free energy": -0.09}
{"sequence": "TAGTACACGTGTAGGG", "relative binding free energy": 0.19}
{"sequence": "GTGTACACGTGTCATT", "relative binding free energy": 0.03}
{"sequence": "TTGGACACGTGGAGAA", "relative binding free energy": 0.1}
{"sequence": "TGCGACACGTGTTTGG", "relative binding free energy": 0.05}
{"sequence": "AGGTACACGTGGGGGA", "relative binding free energy": -0.18}
{"sequence": "ATTGCCACGTGGGTGC", "relative binding free energy": -0.19}
{"sequence": "AAAGACACGTGTTGGG", "relative binding free energy": -0.02}
{"sequence": "TGGTGCACGTGCCATG", "relative binding free energy": -0.07}
{"sequence": "GGGTCCACGTGCGTTT", "relative binding free energy": 0.19}
{"sequence": "TTTATCACGTGACGGA", "relative binding free energy": 0.27}
{"sequence": "TAGGGCACGTGGATAT", "relative binding free energy": -0.12}
{"sequence": "AGGCACACGTGGGGAG", "relative binding free energy": -0.07}
{"sequence": "CGTTCCACGTGTGGTA", "relative binding free energy": 0.1}
{"sequence": "AATTACACGTGGTGGT", "relative binding free energy": 0.13}
{"sequence": "TATAGCACGTGGGTCA", "relative binding free energy": -0.22}
{"sequence": "CGGGACACGTGATGAG", "relative binding free energy": 0.21}
{"sequence": "AGGTACACGTGCAGGG", "relative binding free energy": 0.08}
{"sequence": "TGCGTCACGTGCGATG", "relative binding free energy": 0.1}
{"sequence": "GTCGGCACGTGCGGGT", "relative binding free energy": -0.05}
{"sequence": "ATCCGCACGTGTGGGT", "relative binding free energy": 0.04}
{"sequence": "GATGCCACGTGGTGAG", "relative binding free energy": -0.11}
{"sequence": "CTGTTCACGTGTTTCG", "relative binding free energy": 0.35}
{"sequence": "TTGAGCACGTGGTTAA", "relative binding free energy": -0.19}
{"sequence": "GGGGACACGTGGCTAT", "relative binding free energy": -0.12}
{"sequence": "CGTGACACGTGAGGGA", "relative binding free energy": 0.26}
{"sequence": "ATGGTCACGTGGGATG", "relative binding free energy": 0.1}
{"sequence": "GCGATCACGTGGGTTG", "relative binding free energy": -0.03}
{"sequence": "AAAGGCACGTGTAGTT", "relative binding free energy": 0.01}
{"sequence": "GTCGGCACGTGTTACG", "relative binding free energy": 0.1}
{"sequence": "TGCCGCACGTGGTGGG", "relative binding free energy": -0.14}
{"sequence": "ATAGGCACGTGGGTCG", "relative binding free energy": -0.2}
{"sequence": "TCGGCCACGTGTTGTG", "relative binding free energy": -0.09}
{"sequence": "TACGGCACGTGGCGGT", "relative binding free energy": -0.2}
{"sequence": "AGATACACGTGCAGTT", "relative binding free energy": 0.22}
{"sequence": "TTAGTCACGTGATGTA", "relative binding free energy": 0.18}
{"sequence": "GTGTTCACGTGGAGGC", "relative binding free energy": 0.15}
{"sequence": "TTTGTCACGTGGGCTG", "relative binding free energy": -0.03}
{"sequence": "GAAGGCACGTGGGATT", "relative binding free energy": -0.05}
{"sequence": "GGGAACACGTGGTAGC", "relative binding free energy": 0.13}
{"sequence": "AGCGTCACGTGTGAAG", "relative binding free energy": 0.08}
{"sequence": "TATTCCACGTGTGTTA", "relative binding free energy": 0.07}
{"sequence": "TGATGCACGTGAAGGG", "relative binding free energy": 0.27}
{"sequence": "GGTAACACGTGGGGCG", "relative binding free energy": -0.01}
{"sequence": "CGTGTCACGTGGCGGA", "relative binding free energy": 0.06}
{"sequence": "AGTGGCACGTGATTCG", "relative binding free energy": 0.05}
{"sequence": "AACGTCACGTGGTTGT", "relative binding free energy": 0.06}
{"sequence": "ATTGACACGTGGTGCA", "relative binding free energy": -0.14}
{"sequence": "AGGGACACGTGTGGGG", "relative binding free energy": 0.05}
{"sequence": "AGGGGCACGTGCTTGT", "relative binding free energy": -0.17}
{"sequence": "TCGTGCACGTGCTTGG", "relative binding free energy": -0.13}
{"sequence": "CGTAACACGTGTGGTA", "relative binding free energy": -0.03}
{"sequence": "TGAAACACGTGATATG", "relative binding free energy": 0.18}
